Experimental data published in PubChem BioAssay (Tox21).
Values joined by “and” are separate entries in the source; they are usually repeats but may differ in a detail not shown here. Equal values may be shown once. The inconclusive results got no clear call from the source; some entries with a clear call stand among them for comparison. For some of these results: Potencies of inconclusive entries are doubtful fits and often do not repeat. More than one record can exist for a structure, and the calls need not agree. Active and inactive are the calls of the source. Unless noted, calls follow the shape of the dose curve; as a rule, active = well fitted curve in the direction sought with a large enough effect in the repeat runs; inconclusive = weak or mixed curves; inactive = no such curve, though single readings can be large; an effect the other way counts as inactive or inconclusive.

Legend:
[1] = Caspase-3/7 induction in HepG2 cells by small molecules, qHTS cell viability counter screen (AID 1346981); also: nearly all actives have a fitted effect of over 30% in size; also: potency is read from the fitted curve at half-maximal effect
Method in brief: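 CellTiter-Fluor fluorescence measured viability in the same wells used for Caspase-Glo 3/7. HepG2 (wild type) at 2,000 cells/well were pre-incubated 5 hr, dosed, and given reagent at 16 hr, with 1 hr further at 37C.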

[2] = target: Cytochrome P450 2D6 (Homo sapiens) (UniProt P10635); experiment: Cytochrome P450 Family 2 Subfamily D Member 6 (CYP2D6) small molecule antagonists: luciferase reporter qHTS assay (AID 1671196); also: nearly all actives have a fitted effect of over 50% in size; also: potency is read from the fitted curve at half-maximal effect
Method in brief: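 CYP2D6 activity was followed as luminescence from its luciferin product after a 1 h NADPH-driven reaction at room temperature. Enzyme-substrate mix and compound were pre-incubated for 10 min, and the signal was read 20 min after adding detection reagent.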

[3] = target: Acetylcholinesterase (Homo sapiens) (UniProt P22303); experiment: Acetylcholinesterase (AChE) small molecule antagonists: fluorescence cell-based qHTS assay (AID 1347398; calls by dose curve; also: potency is read from the fitted curve at half-maximal effect; nearly all actives have a fitted effect of over 50% in size); conditions: Potency: AChE activity
Method in brief: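 Cellular AChE inhibition: SH-SY5Y cells treated with test chemical for 30 min at 37 C, then acetylthiocholine hydrolysis followed over 40 min at room temperature via thiocholine-reactive Thiolite Green fluorescence (490/520 nm).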

[4] = target: Acetylcholinesterase (Homo sapiens) (UniProt P22303); experiment: Acetylcholinesterase (AChE) small molecule antagonists: enzyme-based qHTS assay (AID 1347397; calls by dose curve; also: potency is read from the fitted curve at half-maximal effect; nearly all actives have a fitted effect of over 55% in size); conditions: Potency: AChE enzyme activity inhibition
Method in brief: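 Tox21 library chemicals are tested in qHTS format against recombinant human AChE. The enzyme, dispensed at 50 mU/mL, sits with compound for 30 min at room temperature. A DTNB–acetylthiocholine cocktail follows, and colour is read after 10 min.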

[5] = target: Acetylcholinesterase (Homo sapiens) (UniProt P22303); experiment: Acetylcholinesterase (AChE) small molecule antagonists: colormetric cell-based qHTS assay (AID 1347395; calls by dose curve; also: potency is read from the fitted curve at half-maximal effect; nearly all actives have a fitted effect of over 30% in size)
Method in brief: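 Homogeneous whole-cell format. SH-SY5Y cells seeded overnight, dosed with compound (30 min, 37 C, 5% CO2), then given DTNB/acetylthiocholine cocktail for 90 min at 37 C; colorimetric signal.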

[6] = target: Nuclear receptor subfamily 1 group I member 2 (Homo sapiens) (UniProt O75469); experiment: Human pregnane X receptor (PXR) small molecule agonists, qHTS assay (AID 1346982); also: nearly all actives have a fitted effect of over 35% in size; also: potency is read from the fitted curve at half-maximal effect; as to activation: % is scaled to controls: 0 for no effect and ±100 for the full control effect
Method in brief: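 Agonist mode: luminescence from ONE-Glo after 24 h compound exposure at 37C in HepG2 cells carrying hPXR-responsive CYP3A4 luciferase, plated in charcoal-stripped serum medium 5 h beforehand.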

[7] = target: Nuclear receptor subfamily 1 group I member 2 (Homo sapiens) (UniProt O75469); experiment: CYP3A4 induction through human pregnane X receptor (PXR) by small molecules, qHTS assay (AID 1346984); conditions: DPX-2 HepG2 PXR, CYP3A4-luciferin luminescence, 24 h; activation: at 46.1 µM (top of the series) unless noted; also: % is scaled to controls: 0 for no effect and ±100 for the full control effect; nearly all actives have a fitted effect of over 40% in size
Method in brief: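 Read-out is luminescence after One-Glo addition, following a 3 hr, 37C incubation with Luciferin-IPA CYP3A4 substrate (3uM final). Before that, compounds were on DPX-2 cells (HepG2 co-transfected with PXR element plus CYP3A4-promoter luciferase) for 24 hr at 37C.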
Tags tell the direction and shape of the fitted curve.

Sequence of UniProt P10635 (P10635 whole entry, looked up): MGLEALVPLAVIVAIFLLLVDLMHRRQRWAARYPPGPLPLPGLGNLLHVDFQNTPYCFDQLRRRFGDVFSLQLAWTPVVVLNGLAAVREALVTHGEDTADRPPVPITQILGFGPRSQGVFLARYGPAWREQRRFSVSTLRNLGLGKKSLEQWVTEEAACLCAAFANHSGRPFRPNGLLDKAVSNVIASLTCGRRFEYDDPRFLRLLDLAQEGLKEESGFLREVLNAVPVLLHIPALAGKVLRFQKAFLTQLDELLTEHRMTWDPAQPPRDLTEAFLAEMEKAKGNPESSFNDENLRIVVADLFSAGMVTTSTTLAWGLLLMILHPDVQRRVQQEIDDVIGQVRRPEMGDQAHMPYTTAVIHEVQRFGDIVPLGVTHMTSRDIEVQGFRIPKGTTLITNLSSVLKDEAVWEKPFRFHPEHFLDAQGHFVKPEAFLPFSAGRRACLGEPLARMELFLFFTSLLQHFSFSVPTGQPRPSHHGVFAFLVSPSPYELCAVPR
Sequence of UniProt P22303 (P22303 whole entry, looked up): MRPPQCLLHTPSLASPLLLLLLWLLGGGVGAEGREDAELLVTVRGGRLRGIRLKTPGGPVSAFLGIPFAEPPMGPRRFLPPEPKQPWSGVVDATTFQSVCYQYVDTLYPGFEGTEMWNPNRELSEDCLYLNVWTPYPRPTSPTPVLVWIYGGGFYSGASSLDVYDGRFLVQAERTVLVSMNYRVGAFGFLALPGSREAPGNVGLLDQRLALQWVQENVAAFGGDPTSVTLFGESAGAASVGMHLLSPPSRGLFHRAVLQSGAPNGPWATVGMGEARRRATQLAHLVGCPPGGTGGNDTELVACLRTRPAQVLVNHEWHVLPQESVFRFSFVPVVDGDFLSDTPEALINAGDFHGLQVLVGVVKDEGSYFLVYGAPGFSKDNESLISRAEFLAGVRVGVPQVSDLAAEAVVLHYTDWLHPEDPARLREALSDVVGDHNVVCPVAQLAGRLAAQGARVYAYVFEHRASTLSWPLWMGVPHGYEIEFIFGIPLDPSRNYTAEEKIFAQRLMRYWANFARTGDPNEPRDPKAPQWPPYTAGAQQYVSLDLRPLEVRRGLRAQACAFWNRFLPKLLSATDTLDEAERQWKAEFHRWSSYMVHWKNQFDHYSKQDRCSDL

Compound: CCCCCCCc1ccc(O)cc1
- Potency [1]: inconclusive: 27.3 µM [cytotoxic, single point]
- Potency [2]: inconclusive: 50.2 µM [inhibitor, partial curve]

Compound: CC[C@H]1C[C@@H]2C[C@H]3c4[nH]c5ccc(OC)cc5c4CCN(C2)[C@@H]13
- Potency [1]: inconclusive: 67.4 µM [cytotoxic, single point]
- Potency [3]: inconclusive: 35 µM [inhibitor, partial curve]

Compound: CC(C)Oc1cccc(NC(=O)c2ccccc2C(F)(F)F)c1
- Potency [1]: inconclusive: 27.3 µM [cytotoxic]
- Potency [2]: inconclusive: 86 µM [inhibitor]

Compound: Oc1ccc(C(c2ccc(O)cc2)(C(F)(F)F)C(F)(F)F)cc1
- Potency [1]: inconclusive: 68.2 µM [cytotoxic, single point] and inconclusive: 34.4 µM [cytotoxic, partial curve]
- Potency [4]: inconclusive: 89 µM [falling, single point]
- Potency [2]: inconclusive: 56.2 µM [inhibitor, partial curve, poor fit] and inconclusive: 79.6 µM [inhibitor, partial curve]

Compound: C=CC(=O)OCC(CC)(COC(=O)C=C)COC(=O)C=C
- Potency [1]: active: 35.3 µM and active: 24.3 µM
- Potency [2]: active: 65 µM and active: 63.3 µM

Compound: CCC(C)(C)c1ccc(O)c(C(C)(C)CC)c1
- Potency [1]: inconclusive: 27.3 µM [cytotoxic, full curve]
- Potency [2]: active: 35.2 µM and active: 31.7 µM

Compound: O=C(N[C@@H]1N=C(c2ccccc2F)c2cccc3c2N(CC3)C1=O)c1cc2ccccc2[nH]1
- Potency [1]: inactive
- Potency [3]: inconclusive: 0.776 µM [inhibitor, single point]
- Potency [2]: inactive

Compound: C(=NC1CCCCC1)=NC1CCCCC1
- Potency [1]: inconclusive: 13.8 µM [cytotoxic, full curve] and inconclusive: 77 µM [cytotoxic, single point]
- Potency [2]: inconclusive: 63.7 µM [inhibitor] and active: 63.3 µM

Compound: O=S1OCC2C(CO1)C1(Cl)C(Cl)=C(Cl)C2(Cl)C1(Cl)Cl (configuration not stated)
- Potency [1]: inconclusive: 68.7 µM [cytotoxic, single point] and inconclusive: 76.9 µM [cytotoxic, partial curve, poor fit]
- Potency [2]: inconclusive: 35.6 µM [inhibitor, partial curve, poor fit]

Compound: C=CCC1=C(C)C(OC(=O)C2C(C=C(C)C)C2(C)C)CC1=O (configuration not stated)
- Potency [1]: inconclusive: 72.7 µM [cytotoxic]
- Potency [3]: inconclusive: 31.7 µM [inhibitor, partial curve]
- Potency [2]: active: 30 µM

Compound: Cc1ccc([N+](=O)[O-])[c]2c1[O][Hg]2
- Potency [1]: active: 21.1 µM
- Potency [4]: inconclusive: 38.9 µM [falling, partial curve]
- Potency [2]: active: 0.871 µM

Compound: CC(C)CC(C)(c1ccc(O)cc1)c1ccc(O)cc1
- Potency [1]: active: 68.7 µM and active: 61.1 µM
- Potency [4]: inconclusive: 89.6 µM [falling, single point] and inconclusive: 89.4 µM [falling, single point]

Compound: COc1cc(-c2ccc(N)c(OC)c2)ccc1N
- Potency [1]: inconclusive: 38.7 µM [cytotoxic] and active: 46.3 µM
- Potency [2]: inconclusive: 39.9 µM [inhibitor, partial curve]

Compound: CCOP(=O)(NC(C)C)Oc1ccc(SC)c(C)c1 (configuration not stated)
- Potency [1]: inconclusive: 68.6 µM [cytotoxic, partial curve, poor fit]
- Potency [5]: active: 58.6 µM
- Potency [4]: active: 84.4 µM
- Potency [2]: active: 5.02 µM

Compound: CCCOCC(=Nc1ccc(Cl)cc1C(F)(F)F)n1ccnc1
- Potency [1]: inconclusive: 68.5 µM [cytotoxic, single point]
- Potency [2]: active: 35.6 µM

Compound: O=C(CCCN1CCC2(CC1)C(=O)NCN2c1ccccc1)c1ccc(F)cc1
- Potency [1]: active: 7.5 µM
- Potency [3]: inconclusive: 19.5 µM [inhibitor, partial curve, poor fit]

Compound: CC(C)(C)CC(C)(C)c1ccc(O)cc1
- Potency [1]: inconclusive: 33.5 µM [cytotoxic]
- Potency [4]: inconclusive: 89.4 µM [phenotype inactive, partial curve, poor fit]
- Potency [2]: active: 39.9 µM

Compound: CCOP(=S)(OCC)SCn1nnc2ccccc2c1=O
- Potency [1]: inconclusive: 68.6 µM [cytotoxic, single point]
- Potency [5]: active: 12.6 µM
- Potency [4]: active: 35.6 µM

Compound: Cc1cc(N=Nc2ccccc2C)ccc1N
- Potency [1]: active: 3.86 µM and active: 686 nM
- Potency [2]: inconclusive: 44.8 µM [inhibitor, partial curve, poor fit] and active: 63.3 µM

Compound: Cc1cc(SCc2sc(-c3ccc(C(F)(F)F)c(F)c3)nc2C)ccc1OCC(=O)O
- Potency [1]: inconclusive: 68.6 µM [cytotoxic, single point]
- Potency [4]: inconclusive: 89.4 µM [falling, single point]
- Potency [2]: inactive

Compound: CCCCCCCCn1sccc1=O
- Potency [1]: active: 68.7 µM and active: 50.9 µM
- Potency [2]: inconclusive: 93.7 µM [inhibitor, single point]

Compound: Cc1c(COC(=O)[C@@H]2[C@H](/C=C(\Cl)C(F)(F)F)C2(C)C)cccc1-c1ccccc1
- Potency [1]: inconclusive: 59.7 µM [rising, partial curve, poor fit]
- Potency [2]: inconclusive: 39.8 µM [inhibitor, partial curve]

Compound: CCc1cccc(CC)c1N(COC)C(=O)CCl
- Potency [1]: inconclusive: 47 µM [cytotoxic, partial curve] and inactive
- Potency [2]: inconclusive: 68.7 µM [inhibitor, partial curve]

Compound: CC(C)[C@H](C(=O)OC(C#N)c1cccc(Oc2ccccc2)c1)c1ccc(OC(F)F)cc1 (some centres not stated)
- Potency [6]: active: 9.69 µM

Compound: O=C/C=C/c1ccccc1
- Potency [6]: inconclusive: 75.2 µM [activator, single point] and inconclusive: 61.8 µM [activator, partial curve, poor fit] and inconclusive: 48.6 µM [activator, partial curve, poor fit]

Compound: COP(N)(=S)Oc1ccccc1C(=O)OC(C)C (configuration not stated)
- Potency [6]: inconclusive: 30.6 µM [activator, partial curve]
- Potency [5]: inconclusive: 89.4 µM [inhibitor, partial curve, poor fit]

Compound: COC[C@@H](NC(C)=O)C(=O)NCc1ccccc1
- Potency [6]: inactive

Compound: C[C@@H]1O[C@@H](O[C@H]2C[C@@H](O)[C@]3(CO)[C@H]4[C@H](O)C[C@]5(C)[C@@H](C6=CC(=O)OC6)CC[C@]5(O)[C@@H]4CC[C@]3(O)C2)[C@H](O)[C@H](O)[C@H]1O
- Potency [6]: inconclusive: 0.0819 µM [activator, full curve, poor fit]
- activation [7]: inconclusive: -22.2% [activator] and inconclusive: -15% [activator]
- Potency [2]: inactive

Compound: O=C1c2ccccc2C(=O)c2ccccc21
- Potency [6]: inconclusive: 4.11 µM [activator, partial curve]
- Potency [2]: inconclusive: 19 µM [inhibitor, single point]

Compound: CCOP(=S)(OCC)Oc1cc(C)nc(C(C)C)n1
- Potency [6]: inconclusive: 38.8 µM [activator, partial curve, poor fit] and inconclusive: 61.1 µM [activator, partial curve] and inconclusive: 29.8 µM [activator, partial curve, poor fit]
- Potency [4]: inconclusive: 89.9 µM [falling, single point] and inconclusive: 89.4 µM [falling, single point]
- Potency [3]: inconclusive: 38.9 µM [inhibitor, partial curve]
- Potency [2]: inconclusive: 35.8 µM [inhibitor, partial curve]

Compound: CCCCCCCCCCCCOS(=O)(=O)O
- Potency [6]: inconclusive: 60.3 µM [activator, single point]
- Potency [4]: inconclusive: 89.4 µM [falling, single point]

Compound: O=[N+]([O-])c1c(Cl)c(Cl)c(Cl)c(Cl)c1Cl
- Potency [6]: inconclusive: 68.6 µM [activator]
- Potency [5]: active: 39.8 µM and active: 31.7 µM

Compound: Sc1ccccc1
- Potency [6]: inconclusive: 69.6 µM [activator, single point] and inconclusive: 68.9 µM [activator] and inconclusive: 54.5 µM [activator, partial curve, poor fit]
- Potency [5]: inconclusive: 89.9 µM [inhibitor, single point]
- Potency [3]: inconclusive: 71.4 µM [inhibitor, partial curve]
- Potency [2]: inconclusive: 64.2 µM [inhibitor, partial curve, poor fit] and inactive

Compound: C=CC(N)=O
- Potency [6]: inconclusive: 54.6 µM [activator, partial curve] and inactive

Compound: COP(=O)(OC)OC(Br)C(Cl)(Cl)Br (configuration not stated)
- Potency [6]: inconclusive: 68.6 µM [activator, single point]
- Potency [5]: inconclusive: 89.5 µM [inhibitor, single point] and inconclusive: 79.6 µM [inhibitor, partial curve]
- Potency [4]: inconclusive: 79.8 µM [falling, partial curve, poor fit] and inconclusive: 79.6 µM [falling, partial curve, poor fit]
- Potency [2]: active: 40 µM and active: 39.9 µM
